# According to PubChem BioAssay AID2675 (National Center for Advancing Translational Sciences (NCATS), 2010):
# Out of some 280,000 compounds screened, about 100 (0.036%) were called active. The shares of active, inactive and inconclusive entries below differ from those in the screen. The call rests on the fitted dose curve; in most records, active means well fitted inhibition curve with a large enough effect in the signal ratio, with a control signal flat (not every such curve was filed as active); inconclusive means small, poorly fitted or top-dose-only effect, or effect the other way, or a change in a side signal; inactive means no such curve, though single readings can be large or run the other way; the % refers to the signal ratio. Potencies beside an inconclusive call are fits to weak or partial responses and may not hold up. “Side channel” marks fits to a control or component signal instead of the main read-out.
# Target: Muscleblind-like protein 1 (Homo sapiens) (UniProt Q9NR56)
# UniProt Q9NR56, sequence (Q9NR56 whole entry, looked up): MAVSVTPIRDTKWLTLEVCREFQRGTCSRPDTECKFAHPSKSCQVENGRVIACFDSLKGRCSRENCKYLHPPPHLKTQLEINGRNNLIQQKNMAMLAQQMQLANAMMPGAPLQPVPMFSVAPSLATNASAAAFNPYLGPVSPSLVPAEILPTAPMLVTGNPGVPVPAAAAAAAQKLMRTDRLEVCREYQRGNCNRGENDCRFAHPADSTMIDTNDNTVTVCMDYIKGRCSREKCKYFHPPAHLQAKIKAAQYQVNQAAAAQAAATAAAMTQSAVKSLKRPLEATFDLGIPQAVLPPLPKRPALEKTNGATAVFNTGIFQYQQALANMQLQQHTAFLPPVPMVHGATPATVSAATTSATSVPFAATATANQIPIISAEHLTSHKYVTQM
# Test: qHTS Assay for Inhibitors of MBNL1-poly(CUG) RNA binding
# Settings: TR-FRET MBNL1-His/biotin-(CUG)12 binding, 665/545 ratio; activity change, negative = inhibition: at 57.5 µM (top of the series)
# In short: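 His-tagged MBNL1 binding to biotinylated (CUG)12 RNA was measured by TR-FRET using terbium anti-His antibody (0.055 ng/ul final) and streptavidin-XL665 (5 nM final). Compounds were titrated 92 nM to 58 uM; 60 min at room temperature.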
# On the % scale 0 is the no-effect control and ±100 the full control effect; potency means the concentration at half of the fitted maximal effect; tags describe the fitted curve by direction and shape or compound fluorescence and quenching.
Structure (SMILES),Potency,"activity change, negative = inhibition"
N#CC(C#N)=C(N)/C(C#N)=C/c1ccc(O)cc1,"inconclusive: 11.2 µM [quencher, side channel, partial curve]",
COc1cccc(CNc2cnc3ccccc3c2)c1O,"inconclusive: 35.5 µM [quencher, side channel, single point]",
COc1ccccc1CNC(=O)CSc1ccc(-c2cccc([N+](=O)[O-])c2)nn1,"inconclusive: 15.8 µM [quencher, side channel, partial curve]",
Cc1nc(Nc2cnc(/C=C/c3cc(C(=O)Nc4cccc(C(F)(F)F)c4)ccc3C)cn2)cc(N2CCNCC2)n1,"inconclusive: 79.4 µM [inhibitor, single point]",
O=C1CCC(=O)N1c1ccc(NCc2ccccc2Cl)c([N+](=O)[O-])c1,"inconclusive: 31.6 µM [quencher, side channel, partial curve]",
O=S(=O)(NCc1ccccc1)c1cccc2nsnc12,"inconclusive: 11.2 µM [quencher, side channel, partial curve]",
O=C(c1ccncc1)c1ccc(NC(=O)c2cccs2)cc1,"inconclusive: 17.8 µM [quencher, side channel, partial curve]",
C#CCN(C(=O)Nc1ccccc1)c1ccccc1,"inconclusive: 28.2 µM [fluorescent, side channel, partial curve, poor fit]",
COc1ccc(NC(=O)CN2C(=O)c3cccc4cccc2c34)c(OC)c1,"inconclusive: 35.5 µM [quencher, side channel, single point]",
COc1ccc(C(=O)Nc2ccc(S(=O)(=O)NC(C)=O)cc2)cc1[N+](=O)[O-],"inconclusive: 28.2 µM [quencher, side channel, partial curve]",
Cc1ccccc1Cn1cc(S(=O)(=O)CC(=O)Nc2nccs2)c2ccccc21,"inconclusive: 39.8 µM [quencher, side channel, single point]",
Cc1cc(SCc2ccc([N+](=O)[O-])cc2)nc(=O)[nH]1,"inconclusive: 39.8 µM [quencher, single point]",
COc1ccc(OC)c(N2C(=O)[C@@H]3C(c4ccccc4Cl)=NO[C@@H]3C2=O)c1,,inactive: 2.02%
COc1ccc2oc(=O)c(/C(C)=N/NC(=O)c3ccncc3)cc2c1,"inconclusive: 7.94 µM [quencher, side channel, full curve]",
Cc1cc(-c2n[nH]c(=S)n2/N=C/C=C/c2ccccc2)n[nH]1,"inconclusive: 39.8 µM [quencher, side channel, single point]",
CCOc1ccccc1/C=c1\sc2nc(-c3ccco3)nn2c1=O,"inconclusive: 7.08 µM [fluorescent, side channel, single point]",
CN(C)C(=O)C(OC(=O)c1ccc2ccccc2n1)c1ccccc1 (stereo not given),"inconclusive: 25.1 µM [quencher, side channel, partial curve]",
COc1ccc(Nc2nc(-c3cccnc3)cs2)c(OC)c1,"inconclusive: 28.2 µM [quencher, side channel, partial curve]",

Structure (SMILES),Potency,"activity change, negative = inhibition"
O=[N+]([O-])c1cccc(-c2noc(-c3ccco3)n2)c1,"inconclusive: 8.91 µM [quencher, side channel, full curve, poor fit]",
COc1ccc(/C=C2\SC(=O)N(CC(=O)Nc3cccc(C)c3)C2=O)cc1O,"inconclusive: 3.98 µM [quencher, side channel, full curve]",
COC/C=C/C1=CC2=CC(=O)C(C)(OC(=O)c3cnc4ccccc4n3)C(=O)C2=CN1CCCCO (stereo not given),"inconclusive: 25.1 µM [quencher, side channel, partial curve]",
CC(C(=O)N1CCN(Cc2ccc3c(c2)OCO3)CC1)c1ccc([N+](=O)[O-])cc1 (stereo not given),"inconclusive: 28.2 µM [quencher, side channel, partial curve]",
O=S(=O)(c1ccc(N2CC=C(c3ccccc3)CC2)nc1)N1CCCC1,"inconclusive: 10 µM [quencher, side channel, partial curve]",
Cc1c(NC(=O)c2cnn3c(C(F)(F)F)cc(-c4ccco4)nc23)c(=O)n(-c2ccccc2)n1C,"inconclusive: 3.55 µM [quencher, side channel, single point]",
O=C(NCCCN1CCOCC1)c1cc2ccccc2oc1=O,"inconclusive: 15.8 µM [quencher, side channel, partial curve]",
COc1ccc(C(CNC(=O)Cc2ccccc2)N2CCCCC2)cc1 (stereo not given),,inactive: -2%
COc1ccc(NC(=O)/C(C#N)=C\c2ccc(-c3cccc(C(=O)O)c3C)o2)cc1,"inconclusive: 12.6 µM [quencher, side channel, partial curve]",
CC(C)OCCCNC(=O)c1ccc(N(C)S(C)(=O)=O)cc1,"inconclusive: 39.8 µM [inhibitor, single point]",
COC(=O)C1=C(O)/C(=C\c2cc(C)n(-c3ccccc3F)c2C)N=C1C,"inconclusive: 39.8 µM [quencher, side channel, single point]",
CCC1(CC)Cc2ccccc2-c2nc(NCCCO)[nH]c(=O)c21,,inactive: 4.86%
COc1ccc(OC)c(NC(=O)CSc2nc3ccccc3c3nc4ccccc4n23)c1,"inconclusive: 3.16 µM [fluorescent, side channel, partial curve]",
Cn1c(=O)c2c(ncn2CC(=O)N/N=C/C=C/c2ccccc2[N+](=O)[O-])n(C)c1=O,"inconclusive: 7.94 µM [quencher, side channel, full curve]",
O=c1ccc2ccc(Oc3ccc(Cl)cc3[N+](=O)[O-])cc2o1,"inconclusive: 28.2 µM [quencher, side channel, partial curve]",
Cc1nnc(NC(=O)CSc2nc3ccccc3o2)s1,,inactive: 3.39%
COc1ccc(N2CC(C(=O)Nc3ccc([N+](=O)[O-])cc3Br)CC2=O)cc1 (stereo not given),"inconclusive: 15.8 µM [quencher, side channel, partial curve]",
